Data from the antibiotic and cytotoxicity screens of Wong et al. (2023).
The other results are listed elsewhere or left out.

Test system: HepG2
Assay: cytotoxicity call (relative viability < 0.9)
Conditions: 10 µM

SMILES | cytotoxicity call
C[C@H](CO)N1C[C@H](C)[C@H](CN(C)S(C)(=O)=O)Oc2ccc(NC(=O)Nc3ccccc3)cc2CC1=O | inactive
C[C@H]1CCCCO[C@@H](CN(C)C(=O)Nc2ccc3c(c2)OCO3)[C@@H](C)CN([C@@H](C)CO)C(=O)c2cc(NS(=O)(=O)c3cccs3)ccc2O1 | inactive
Nc1ncnc2nc(N3CCCCC3)[nH]c12 | inactive
O=C(NCCCN1CCOCC1)[C@@H]1[C@@H](CO)[C@@H]2Cn3c(cccc3=O)[C@H]1N2C(=O)NC1CCCC1 | inactive
C[C@H](CO)N1C[C@H](C)[C@H](CN(C)C(=O)Cc2ccncc2)Oc2cc(C#Cc3ccccc3F)ccc2S1(=O)=O | inactive
O=C1O[C@H](c2ccccc2)[C@H](c2ccccc2)N2[C@H]1[C@@H](C(=O)N1CCCCCCC1)[C@]1(C(=O)Nc3ccc(C#CC4(O)CCCCCC4)cc31)[C@H]2c1ccccc1OCCO | inactive
C[C@H]1CCCCO[C@@H](CN(C)Cc2ccncc2)[C@@H](C)CN([C@@H](C)CO)C(=O)c2cc(NS(C)(=O)=O)ccc2O1 | inactive
CO[C@H]1CN(C)C(=O)c2ccc(NC(C)=O)cc2OC[C@H](C)N(S(=O)(=O)c2cn(C)cn2)C[C@H]1C | inactive
CNC(=O)C[C@@H]1CC[C@@H]2[C@H](COC[C@@H](O)CN2C(=O)Nc2cccc(OC)c2)O1 | inactive
COc1ccc(S(=O)(=O)Nc2ccc3c(c2)C(=O)N([C@@H](C)CO)C[C@H](C)[C@H](CN(C)C(=O)Nc2ccc(C(F)(F)F)cc2)OCCCC[C@@H](C)O3)cc1 | inactive
COc1cccc(S(=O)(=O)N(C)C[C@H]2Oc3ncc(Br)cc3C(=O)N([C@H](C)CO)C[C@H]2C)c1 | inactive
Cc1cc(C(=O)Nc2cccc3c2O[C@@H](CN(C)S(=O)(=O)c2ccccc2)[C@H](C)CN([C@H](C)CO)C3=O)n(C)n1 | inactive
C[C@H](CO)N1C[C@H](C)[C@H](CN(C)Cc2ccc(Oc3ccccc3)cc2)Oc2c(NC(=O)Nc3ccc(C(F)(F)F)cc3)cccc2C1=O | inactive
C[C@@H]1CCCCO[C@@H](CN(C)S(=O)(=O)c2ccccc2)[C@H](C)CN([C@H](C)CO)C(=O)c2cc(NC(=O)Nc3ccc(F)cc3)ccc2O1 | inactive
C[C@@H]1CN([C@@H](C)CO)S(=O)(=O)c2ccc(C#Cc3ccccc3F)cc2O[C@H]1CN(C)CC1CCOCC1 | inactive
C[C@@H]1CN([C@@H](C)CO)C(=O)c2cc(NS(=O)(=O)c3cccs3)ccc2O[C@@H](C)CCCCO[C@@H]1CN(C)C(=O)Nc1ccc(C(F)(F)F)cc1 | inactive
C[C@H](CO)N1C[C@H](C)[C@H](CN(C)S(C)(=O)=O)Oc2ncc(C#Cc3cccnc3)cc2C1=O | inactive
COc1ccc(NC(=O)N(C)C[C@H]2Oc3cc(C#CCN(C)C)ccc3S(=O)(=O)N([C@H](C)CO)C[C@H]2C)cc1 | inactive
C[C@@H]1CCCCO[C@@H](CN(C)Cc2ccc(C(=O)O)cc2)[C@@H](C)CN([C@@H](C)CO)C(=O)c2cc(NC(=O)Nc3cccc4ccccc34)ccc2O1 | inactive
COC(=O)C(CC#Cc1ccc2c(c1)[C@]1(C(=O)N2)[C@H](c2ccccc2OCCO)N2[C@H](c3ccccc3)[C@H](c3ccccc3)OC(=O)[C@H]2[C@@H]1C(=O)N1CCc2cc(OC)c(OC)cc2C1)C(=O)OC | inactive
CC1C(=O)CCC1=O | inactive
C[C@@H]1CN([C@H](C)CO)C(=O)Cc2cc(NC(=O)C3CCCCC3)ccc2O[C@@H]1CN(C)S(=O)(=O)c1cn(C)cn1 | inactive
O=C(C[C@@H]1CC[C@@H](NC(=O)c2cnccn2)[C@@H](CO)O1)NCc1ccccc1F | inactive
C[C@@H]1CN([C@H](C)CO)C(=O)Cc2cc(NC(=O)Cc3cn(C)c4ccccc34)ccc2O[C@@H]1CN(C)Cc1ccc(-c2ccccc2)cc1 | active
COc1ccc(NC(=O)N(C)C[C@@H]2OCCCC[C@@H](C)Oc3ccc(NC(=O)Nc4ccccc4)cc3C(=O)N([C@H](C)CO)C[C@H]2C)cc1 | inactive
CCS(=O)(=O)Nc1ccc2c(c1)C(=O)N(C)C[C@H](OC)[C@H](C)CN(CCC(F)(F)F)[C@H](C)CO2 | inactive
CO[C@@H]1CN(C)C(=O)c2ccc(NS(C)(=O)=O)cc2OC[C@H](C)N(C(=O)c2ccc3c(c2)OCO3)C[C@@H]1C | inactive
C[C@@H]1CN([C@H](C)CO)C(=O)Cc2cc(NC(=O)Cn3cnnn3)ccc2O[C@H]1CN(C)S(=O)(=O)c1ccccc1 | inactive
